Data published in publication PMC4336329 (PLoS ONE, 2015).
Among all 310,000 compounds or so, about 14,000 (4.5%) showed an effect of 50% or more. The effect is printed as a negative number. The list shows a part of the results.

molecular target: human ether-à-go-go-related gene (hERG) potassium channel (human, UniProt Q12809); assay: primary screen, population patch clamp on CHO cells stably expressing hERG
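Note: peak tail current of the secondary pulse compared with the same well before compound.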

human ether-à-go-go-related gene (hERG) potassium channel, sequence (Q12809 whole entry, looked up): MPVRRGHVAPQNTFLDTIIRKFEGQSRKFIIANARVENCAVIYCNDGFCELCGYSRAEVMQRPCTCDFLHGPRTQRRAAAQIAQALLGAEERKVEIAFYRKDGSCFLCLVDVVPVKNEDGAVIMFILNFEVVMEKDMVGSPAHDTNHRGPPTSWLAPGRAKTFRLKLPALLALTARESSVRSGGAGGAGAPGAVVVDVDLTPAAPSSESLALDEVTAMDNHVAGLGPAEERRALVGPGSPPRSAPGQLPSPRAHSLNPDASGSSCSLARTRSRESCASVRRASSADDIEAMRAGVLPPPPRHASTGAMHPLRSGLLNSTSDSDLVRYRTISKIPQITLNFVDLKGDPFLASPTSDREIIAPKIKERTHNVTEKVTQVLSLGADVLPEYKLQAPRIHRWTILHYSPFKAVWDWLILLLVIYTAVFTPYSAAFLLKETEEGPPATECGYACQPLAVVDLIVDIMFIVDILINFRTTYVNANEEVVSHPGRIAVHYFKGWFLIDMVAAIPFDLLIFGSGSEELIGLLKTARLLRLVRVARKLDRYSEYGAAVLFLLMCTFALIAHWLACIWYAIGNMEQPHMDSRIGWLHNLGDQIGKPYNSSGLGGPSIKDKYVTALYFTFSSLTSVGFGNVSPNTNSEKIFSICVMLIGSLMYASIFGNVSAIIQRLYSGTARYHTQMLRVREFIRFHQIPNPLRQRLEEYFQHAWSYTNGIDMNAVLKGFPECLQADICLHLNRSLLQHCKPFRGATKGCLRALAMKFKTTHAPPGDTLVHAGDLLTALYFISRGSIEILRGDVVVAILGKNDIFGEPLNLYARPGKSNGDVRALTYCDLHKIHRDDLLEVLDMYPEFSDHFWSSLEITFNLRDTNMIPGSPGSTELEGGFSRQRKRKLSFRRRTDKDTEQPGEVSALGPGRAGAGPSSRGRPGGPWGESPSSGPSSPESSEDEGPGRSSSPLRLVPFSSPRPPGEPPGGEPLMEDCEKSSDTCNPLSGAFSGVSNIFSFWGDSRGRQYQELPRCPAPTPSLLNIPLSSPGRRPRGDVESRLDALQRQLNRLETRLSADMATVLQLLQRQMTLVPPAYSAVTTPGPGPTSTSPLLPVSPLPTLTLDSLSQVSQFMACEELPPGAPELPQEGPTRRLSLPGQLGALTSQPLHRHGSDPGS

Structure (SMILES) | hERG current change (%, negative = inhibition) at 10uM [%]
O=C(CCC(=O)N1CCN(c2ccccn2)CC1)c1ccc(Cl)s1 | -36
N#Cc1c(-c2ccccc2)c(-c2ccccc2)nn(CC(=O)NNC(=O)Nc2ccccc2)c1=O | 27.8
Nc1[nH]n2c(=O)cc(-c3ccccc3)nc2c1N=Nc1ccc(S(N)(=O)=O)cc1 | 1.01
CCOC(=O)CSc1c(-c2cccs2)[nH]c2ccccc12 | -1.44
CCOc1ccccc1NC(=O)COc1ccc2ccc(=O)oc2c1 | 13
CC(=O)NCC1=C(NC(C)=O)C2CC1C(C)(C)C2C (stereo not shown) | 18.9
O=C(NCCN1CCOCC1)c1cc(Br)ccc1Cl | 15.2
CCOc1ccc2nc(N(CCCN(C)C)C(=O)c3ccc(S(=O)(=O)N4CCCC4)cc3)sc2c1.Cl | -70.4
COc1ccc(S(=O)(=O)NCC(=O)O)cc1C(=O)NC1CCCCC1 | 35.2
O=C(COC(=O)CCNS(=O)(=O)c1cccs1)Nc1cc(C(F)(F)F)ccc1Cl | -26.1
COc1ccc(O)c(/C=N/NC(=O)c2ccc(N3CCCC3=O)cc2)c1 | -0.354
Cn1cc(S(=O)(=O)N2CCc3ccccc32)cc1C(=O)NC1CCCCC1 | 2.95
CCOC(=O)C1=C(N)N(c2ccccc2)C2=C(C(=O)CCC2)C1c1cccnc1 (stereo not shown) | -4.55
CN(C)C=NCCn1c(N2CCOCC2)nc2c1c(=O)n(C)c(=O)n2C.Cl | -2.83
CCCCn1cc([N+](=O)[O-])nc1C | 21
CC1CCC2(CC1)NC(=O)N(CC(=O)Nc1ccc(N3CCOCC3)cc1)C2=O (stereo not shown) | -9.35
O=C(N=C1SC2CS(=O)(=O)CC2N1c1cccc(F)c1)C1CC1 (stereo not shown) | 26.6
Cc1ccc(-c2onc(C)c2C)cc1S(=O)(=O)N1CCOc2ccccc21 | 9.26
CCNC(=O)NC(=O)C(C)OC(=O)c1oc2ccc(OCC)cc2c1C (stereo not shown) | 2.31
CCC(C)(C)NC(=O)CN(C(=O)CCC(=O)Nc1nccs1)c1cccc(C)c1C | 0.481
O=C(CN1CCN(S(=O)(=O)c2ccccc2)CC1)Nc1ccc2c(c1)OCO2 | -44.1
COC(=O)CN(C#N)c1nc(OC)nc(N(C)C)n1 | -4.12

Structure (SMILES) | hERG current change (%, negative = inhibition) at 10uM [%]
CC(O)C(NC=C1C(=O)OC(C)(C)OC1=O)C(=O)O (stereo not shown) | 21
NC(=O)Cn1cnc2c(nnn2-c2ccc(F)cc2)c1=O | 2.12
COc1cccc(C(=O)N2CCN(C(=O)C3CCCO3)CC2)c1 (stereo not shown) | 24.1
COc1ccc(NC(=O)NC(C(F)(F)F)C(F)(F)F)cc1 | 15.1
CCn1c(SCC(=O)OC)nc2sc3c(c2c1=O)CCC3 | -9.34
CN1CCN(CCCc2c3c(cc4c2CCC4)CCC3)CC1.Cl | -19.8
O=C(COc1ccccc1Cl)NC(=S)Nc1ccc(CN2CCOCC2)cc1 | 2.66
CN1CCN(/N=C/c2ccc(Br)cc2)CC1.Cl | -12.8
COc1ccc(/C=N/NC(=O)c2ccncc2)cc1Cn1nc([N+](=O)[O-])c(Br)c1C | -49.4
CCN(c1ccccc1)S(=O)(=O)c1ccc(F)cc1C | -22.7
O=C(O)c1ccc(CN(c2ccccn2)S(=O)(=O)c2ccccc2)cc1 | 10.7
CCC(=O)Nc1nc(-c2ccc3c(c2)CC(C)N3S(C)(=O)=O)cs1 (stereo not shown) | 2.09
COc1cc(CN2CCNC(=O)C2CC(=O)NC2CCCC2)cc(OC)c1 (stereo not shown) | -8.68
COc1ccc(C(=O)NC(=S)NCc2cccnc2)cc1Cl | -1.7
CC(C)[C@H](NC(=O)C1CCN(S(=O)(=O)c2ccccc2)CC1)C(=O)NCc1ccccc1 | 10.2
Cc1c(C(=O)NC2CCCc3ccccc32)oc2ccc(S(=O)(=O)N3CCCC3)cc12 (stereo not shown) | 12
CCCCN(Cc1ccccc1)S(=O)(=O)c1c(N)n(C)c(=O)n(C)c1=O | 2.35
O=C(/C=C/c1ccco1)NC(=S)Nc1ccccc1Br | 19
CCOC(=O)c1ccc(NC(=O)c2cn(CCC#N)nc2-c2ccc3c(c2)OCCO3)cc1 | -4.59
CC(OC(=O)/C=C/c1ccc(Br)cc1)C(=O)N1CCOCC1 (stereo not shown) | -10.8
CCOc1ccc(/C=C/C(=O)NC2CCCCC2)cc1 | -5.16
Cc1cc(C(F)(F)F)n(-c2nc(C(=O)N/N=C/c3ccc(F)cc3)cs2)n1 | -14.2

Structure (SMILES) | hERG current change (%, negative = inhibition) at 10uM [%]
Cc1ccc(NCCNc2ccc(C)cc2)cc1 | -7.18
CCOc1ccc(-n2cnnn2)cc1S(=O)(=O)N1CCCCC1 | -10.1
CNC(=S)NNC(=O)Cc1ccccc1 | -2.98
CS(=O)(=O)N1N=C(c2ccco2)CC1c1ccccc1 (stereo not shown) | 18.2
Cc1ccccc1CNC(=O)Cc1ccccc1[N+](=O)[O-] | -4.8
CCOc1cc(CNc2ccc(Br)cc2)cc(Br)c1OCC(=O)NC(C)(C)C | -1.64
O=C(CSc1ncnc2c(-c3ccc(Cl)cc3)nsc12)c1ccccc1 | 5.06
CCN(C(=O)Cc1cccs1)c1nnc(-c2cc(OC)c(OC)c(OC)c2)s1 | 3.03
O=C1COc2ccc(C(=O)COC(=O)C3CC(O)CN3S(=O)(=O)c3ccc(Cl)cc3)cc2N1 (stereo not shown) | -16.8
CC(C)CCn1c(=O)c2ccccc2n2c(CN(C)Cc3ccccc3)nnc12 | -80.7
CC(=O)C1=C(O)C(=O)N(c2ccc(S(N)(=O)=O)cc2)C1c1ccccc1F (stereo not shown) | 13.5
Cc1c(C(=O)N(Cc2ccccc2)Cc2cccs2)cnn1-c1ccc(Cl)cc1 | -3.32
C=CCNC(=S)Nc1ccc2cn[nH]c2c1 | -1.08
CC(C)CCOP(=O)(c1ccc(N(C)C)cc1)C(O)c1ccccc1 (stereo not shown) | -30.4
CC1CCc2c(sc3nc(C(C)(C)C)nc(N4CCN(C(=O)CCl)CC4)c23)C1 (stereo not shown) | 6.17
O=S(=O)(Nc1nc2ccccc2[nH]1)c1ccccc1 | -10.1
O=C(CSc1nnc(CNC(=O)c2ccccc2)o1)NCCc1ccccc1 | 5.15
CCC(CO)NCc1sccc1C (stereo not shown) | 22.5
COc1cc(S(=O)(=O)NCCCn2ccnc2)ccc1Cl | 7.94
O=S(=O)(Nc1ccc(Cc2ccncc2)cc1)c1ccc(Cl)c(Cl)c1 | -53.4
O=C(O)COCC(=O)Nc1ccc(Oc2ncnc3cc(Cl)ccc23)nc1 | 11.6
COC(=O)c1cccc(C23CC4(C2)[C@H](CN(Cc2ccc(-c5ccccc5)cc2)[C@@H]4c2ccccc2)C3c2ccc(Cl)nc2)c1 (stereo partly shown) | -20.9

Structure (SMILES) | hERG current change (%, negative = inhibition) at 10uM [%]
CCN1CCN(C(c2cccs2)C(C)NS(=O)(=O)c2ccccc2)CC1 (stereo not shown) | -2.02
CCSCc1nnc(SCC(=O)Nc2nc(C)cs2)n1C | -1.63
CN(C(=O)COC(=O)Cn1cnc2c1c(=O)n(C)c(=O)n2C)C1(C#N)CCCCC1 | 5.2
CCOc1ccc(C2C(C(=O)OC)=CN(C(C)c3ccccc3)C=C2C(=O)OC)cc1 (stereo not shown) | 2
Cc1ccc(/C=C2/NC(=O)[C@H](C)NC2=O)cc1 | 16.6
O=C1NC2=C(C(=O)CCC2)C(c2ccc3ncccc3c2)N1 (stereo not shown) | -1.74
COc1ccc(S(=O)(=O)N2CCN(C(=O)N3CCOCC3)C2C)cc1 (stereo not shown) | 13.6
CN(C)c1ccc(C(=O)NCc2ccc3c(c2)OCO3)cc1 | -1.61
CCC(=O)N1C(C(=O)NCc2ccc(OC)cc2)CSC1c1ccc(OC)cc1 (stereo not shown) | -0.295
CC1CCC2C(C1)OS(=O)(=O)NC2(C)C (stereo not shown) | 15.3
CC1(C)Cc2c(C#N)c(SCc3nc4ccccc4[nH]3)nc(N3CCOCC3)c2CO1 | -31.8
O=C1CCC(C(=O)Nc2ccccc2N2CCOCC2)=NN1 | 4.6
Nc1c(C(=O)NCc2ccco2)nnn1Cc1ccccc1 | -13.6
O=C1CC(C(=O)Nc2ccccc2C(=O)O)C(c2ccccc2)O1 (stereo not shown) | 9.06
COc1cc(CNCCCN2CCOCC2)cc(Br)c1OCC(=O)N1CCCCC1.Cl | 6.68
Cc1cc(C)c(NC(=O)/C(=C/c2ccccc2)c2ccccc2)c(C)c1 | 0.402
CCN(CC)S(=O)(=O)c1ccc(C(=O)Nc2ccc3c(c2)OCO3)cc1 | 4.68
Cc1ccc(S(=O)(=O)N(C)c2ccc(OCC(=O)NC3=NCCS3)cc2)cc1 | 11.3
Cl.O.O=C1CC(=C2c3ccccc3-c3ccccc32)C(=O)N1CCCCN1CCN(c2ccccc2)CC1 | 1.05
Cc1ccc(N2CC(C(=O)NCCc3ccc(S(N)(=O)=O)cc3)CC2=O)cc1 (stereo not shown) | 22.5
CCn1c(-c2cc(C3CC3)nc3ccccc23)n[nH]c1=S | 10.2
CCCCn1nc(NC(=O)c2cccs2)c2cc3cc(OC)ccc3nc21 | -0.306
